This is an account of results in the supplement of paper PMC11383711.

The other results are listed elsewhere or left out. Binding of human antibodies (heavy:light variable regions, tested as scFv in one mRNA-display pool) to influenza hemagglutinin, with or without the stem antibody CR9114 bound first. Score = (mean enrichment − median) / interquartile range of that screen; higher = more enriched, 0 = typical non-binder. Active = above the paper's cut-off per screen: stems 28; unblocked H1 Solomon Islands 5, H1 Michigan 3, H3 5, H5 19, H7 2.85, both B 5; blocked 9, 7, H5 10, H7 10, B Phuket 10, B Lee 11.5. Scores are scaled within each screen and are no affinities; replicates correlate at about 0.6 to 0.9, and antibodies rare in the pool are noisier.

The chains are these.
B1: 236-14-IgG-1F03 (protein)
chain 1: QVQLVESGGGVVQPGRSLRLSCAAFGFTFSSFPMHWVRQAPGKGLEWVAVISYDGSNKYYADSVKGRFTISRDNSKNTLYVQMNSLRAEDTAVYYCSRDQGGDYGDYGGGFDYWGQGTLVTVSS
chain 2: QSVLTQPPSASGTPGQRVTISCSGSSSNIASNTVNWYQQVPGTAPKLLIYSNDVRPSGVPDRFSGSKSGTSASLAISGLQSEDEADHYCAVWDDSLNAYVFGTGTKVTVL
B2: antibody 1B02 (protein)
chain 1: VQLLESGGGLVPPGGSLRLSCAASGLSFSSYSMSWVRQAPGKGLEWVSAIGGLHGSTYYADFVEGRFTISRDNSRDTVFLQMNYLRAEDTALYYCASDLDGDDGTWFDNWGQGTLVTVSS
chain 2: EIVMTQSPATLSVSPGERATLSCRASQSVSTNLTWYQQKPGQAPRLLIYGASTRASGIPASFSGGGSGTEFTLTISSLQSEDFAVYFCQQYNDWPPTFGQGTKVEIK
B3: C2-3-D06 (protein)
chain 1: VQLQESGPGLVKPSETLSLTCTVSADSISSYFWTWIRQPPGKGLEWIGYIYYSGSTNYNPSLKSRVTISLDTSKRLLSLKLSSVTAADTAVYYCARDSTVFPRIFDSWGQGTLVTVSS
chain 2: IVMTQSPGTLSVSPGERATLSCRASQSVGSSFLAWYQQKLGQAPRLLIYGVSSRATGVPDRFSGSGSGTDFTLTISRLEPEDFAVYYCQQCGSSPWTFGQGTKVEIK
B4: AG11-2C03 (protein)
chain 1: VQLQESGPGLVKPSETLSLTCRVSGGSIDGDTYYWGWVRQPPGKGPEWIGSMSPNGITYYGPSLKSRVTMSVDSSLKSFSLRMTSVTTTDTAVYYCARDRDIVSRGGFDNWGRGTLVTVSS
chain 2: DIQMTQSPSSLSASVGDRVTITCRASQSISHFLNWYQHRPGQAPKLLIYLASTLHSGVPSRFSGSGSGTYFTLTISGLQPEDFATYYCQQSYSNDPYTFGQGTKVEIK
B5: R95-1A03 (protein)
chain 1: EVQLVESGGGLIQPGGSLRLSCAASGFTVSINYMSWVRQAPGKGLEWVSVIYTGGETYYADSVKGRFTISRDNSKNTLYLQMNSLRAEDTAVYYCARDGPPGDGSLDYWGQGTLVTVSS
chain 2: SYELTQPPSVSVAPGQTARITCGGNNIGSKSVHWYQQKPGQAPVLVVYDDSDRPSGIPERFSGSNSGNTATLTISRVEAGDEADYYCQVWDSFSDVVFGGGTKLTVL
B6: W85-3B09 (protein)
chain 1: EVQLLESGGGLVQPGGSLRLSCAASGFTFSDYAMSWVRQAPGKGLEWVAILSGSSGHTYYPDSVKGRFTISRDNSKNTLYLQLTSLRAEDTAVYYCAKGGGQQPTWDGMDVWGQGTTVTVSS
chain 2: DIQMTQSPSTLSASVGDKVTITCRASQSINRWLAWYQQKPGKAPKLLIYRASSLESGVPSRFSGSGSGTEFTLTISSLQPDDFATYFCQHYEGYSWTFGQGTKVDIK

One assay concerns the target Influenza A H1N1 A/Michigan/45/2015 hemagglutinin ectodomain. The experiment in a line: mRNA display binding score; higher = more enriched on the antigen. The conditions noted are these: antigen blocked with: 2 µM CR9114 IgG. The method, then:
(§1)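 A pool of natively paired antibodies, displayed as scFv on mRNA, was selected once on antigen-coated beads and sequenced before and after; two replicates.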
On to B1, for which the “mRNA display binding score” value is active: 224.

As to B2, the “mRNA display binding score” value was inactive: -0.409.

B3: the “mRNA display binding score” value is inactive: 0.537.

Regarding B4, the “mRNA display binding score” value is inactive: -0.0562.

As for B5, the “mRNA display binding score” value is inactive: -0.471.

Take B6: the “mRNA display binding score” value is inactive: 0.00196.

Still in this assay, the particulars now being: antigen blocked with: nothing.
As for B1, the “mRNA display binding score” value is active: 8.46.

In the case of B2, the “mRNA display binding score” value was inactive: 0.475.

Turning to B3, the “mRNA display binding score” value is inactive: 0.622.

For the molecule B4, the “mRNA display binding score” value is inactive: 0.0253.

With B5, the “mRNA display binding score” value is inactive: -0.619.

Regarding B6, the “mRNA display binding score” value is inactive: -0.403.

A further assay concerns the target Influenza A H1N1 A/Solomon Islands/3/2006 hemagglutinin ectodomain. The assay is described as above. The conditions noted are these: antigen blocked with: 2 µM CR9114 IgG. How it is done:
as §1
With B1, the “mRNA display binding score” value is inactive: 0.272.

Regarding B2, the “mRNA display binding score” value is inactive: 0.458.

For the molecule B3, the “mRNA display binding score” value is inactive: 0.215.

For B4, the “mRNA display binding score” value is inactive: -0.257.

Turning to B5, the “mRNA display binding score” value is inactive: -0.547.

Regarding B6, the “mRNA display binding score” value is inactive: -0.238.

The same assay, now with this note: antigen blocked with: nothing.
For the molecule B1, the “mRNA display binding score” value is inactive: 0.121.

Turning to B2, the “mRNA display binding score” value is inactive: -0.454.

Take B3: the “mRNA display binding score” value is inactive: 0.181.

B4: the “mRNA display binding score” value is inactive: -0.156.

Turning to B5, the “mRNA display binding score” value is inactive: -0.442.

As for B6, the “mRNA display binding score” value is inactive: -0.129.

A further assay deals with Influenza A H3N2 A/Singapore/INFIMH-16-0019/2016 hemagglutinin ectodomain. The description is as above. The conditions noted are these: antigen blocked with: nothing. The method, then:
as §1
Take B1: the “mRNA display binding score” value was inactive: 0.322.

Turning to B2, the “mRNA display binding score” value was inactive: 0.999.

As for B3, the “mRNA display binding score” value is inactive: 0.126.

Consider B4, for which the “mRNA display binding score” value is inactive: -0.478.

Turning to B5, the “mRNA display binding score” value is inactive: -0.217.

For the molecule B6, the “mRNA display binding score” value was inactive: -0.0394.

A further assay addresses Influenza A H5N1 A/Qinghai/1A/2005 hemagglutinin ectodomain. The assay is described as above. The note with it: antigen blocked with: 2 µM CR9114 IgG. How it is done:
as §1
On to B1, for which the “mRNA display binding score” value is inactive: 0.0373.

On to B2, for which the “mRNA display binding score” value was inactive: 0.435.

For B3, the “mRNA display binding score” value was inactive: 0.355.

As for B4, the “mRNA display binding score” value was inactive: 3.04.

B5: the “mRNA display binding score” value is inactive: -0.75.

For B6, the “mRNA display binding score” value is inactive: -0.228.

The same assay, now with this note: antigen blocked with: nothing.
B1: the “mRNA display binding score” value was inactive: 0.21.

Take B2: the “mRNA display binding score” value was inactive: 0.09.

Regarding B3, the “mRNA display binding score” value is inactive: 0.508.

Regarding B4, the “mRNA display binding score” value is inactive: 0.573.

Take B5: the “mRNA display binding score” value is inactive: -0.577.

With B6, the “mRNA display binding score” value is inactive: -0.263.

A further assay concerns the target Influenza A H7N9 A/Shanghai/2/2013 hemagglutinin ectodomain. The description is as above. The note with it: antigen blocked with: 2 µM CR9114 IgG. How it is done: as §1
For the molecule B1, the “mRNA display binding score” value was inactive: -0.413.

Regarding B2, the “mRNA display binding score” value is inactive: -0.353.

As to B3, the “mRNA display binding score” value was inactive: -0.052.

With B4, the “mRNA display binding score” value was inactive: 2.12.

With B5, the “mRNA display binding score” value is inactive: -0.513.

For the molecule B6, the “mRNA display binding score” value was inactive: -0.326.

Still in this assay, the particulars now being: antigen blocked with: nothing.
In the case of B1, the “mRNA display binding score” value is inactive: 0.0647.

Consider B2, for which the “mRNA display binding score” value was inactive: 0.498.

For the molecule B3, the “mRNA display binding score” value is inactive: 0.495.

For the molecule B4, the “mRNA display binding score” value was inactive: -0.199.

As to B5, the “mRNA display binding score” value is inactive: -0.57.

As to B6, the “mRNA display binding score” value was inactive: -0.187.

The next assay concerns the target Influenza B/Lee/1940 hemagglutinin ectodomain. The description is as above. The note with it: antigen blocked with: 2 µM CR9114 IgG. How it is done: as §1
For the molecule B1, the “mRNA display binding score” value was inactive: -0.495.

As to B2, the “mRNA display binding score” value is inactive: -1.04.

Regarding B3, the “mRNA display binding score” value is inactive: -0.244.

Take B4: the “mRNA display binding score” value is inactive: 4.08.

Turning to B5, the “mRNA display binding score” value is inactive: -0.342.

Turning to B6, the “mRNA display binding score” value was inactive: -0.353.

Still in this assay, the particulars now being: antigen blocked with: nothing.
With B1, the “mRNA display binding score” value was inactive: -0.203.

Take B2: the “mRNA display binding score” value was inactive: -0.0633.

As for B3, the “mRNA display binding score” value is inactive: 0.878.

Turning to B4, the “mRNA display binding score” value was inactive: 2.65.

Consider B5, for which the “mRNA display binding score” value is inactive: -0.365.

With B6, the “mRNA display binding score” value is inactive: -0.301.

In another assay the target is Influenza B/Phuket/3073/2013 hemagglutinin ectodomain. The description is as above. The conditions noted are these: antigen blocked with: 2 µM CR9114 IgG. The method, then:
as §1
For B1, the “mRNA display binding score” value is inactive: 0.0379.

For B2, the “mRNA display binding score” value is inactive: 0.0981.

With B3, the “mRNA display binding score” value was inactive: -0.111.

As to B4, the “mRNA display binding score” value is active: 11.1.

With B5, the “mRNA display binding score” value is inactive: -0.601.

Take B6: the “mRNA display binding score” value is inactive: -0.294.

Still in this assay, the particulars now being: antigen blocked with: nothing.
For the molecule B1, the “mRNA display binding score” value was inactive: -0.0714.

Turning to B2, the “mRNA display binding score” value is inactive: 0.0551.

For the molecule B3, the “mRNA display binding score” value is inactive: 0.642.

On to B4, for which the “mRNA display binding score” value is inactive: 1.91.

As to B5, the “mRNA display binding score” value is inactive: -0.453.

As for B6, the “mRNA display binding score” value is inactive: -0.283.
